The source of these data is patent publication US20230340048A1.

Assay [1] deals with TGFβ1 (UniProt P01137). In words: cell-based or functional assay.
In assay [2] the target is TGFβ3 (UniProt P10600). In words: cell-based or functional assay.
Sequence of UniProt P10600 (P10600 301-412): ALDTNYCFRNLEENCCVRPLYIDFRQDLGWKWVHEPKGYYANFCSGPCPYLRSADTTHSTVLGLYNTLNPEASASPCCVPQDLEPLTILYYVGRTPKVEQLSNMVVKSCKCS

Sequence of UniProt P01137 (P01137 279-390 limits assumed): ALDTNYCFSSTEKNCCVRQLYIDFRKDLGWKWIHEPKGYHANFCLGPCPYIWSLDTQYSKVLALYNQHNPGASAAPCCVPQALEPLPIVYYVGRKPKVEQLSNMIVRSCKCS

B1: T22d35-Fc-IgG1-v1 (CC) (Fc fusion)
chain: IPPHVQKSVNNDMIVTDNNGAVKFPQLCKFCDVRFSTCDNQKSCMSNCSITSICEKPQEVCVAVWRKNDENITLETVCHDPKLPYHDFILEDAASPKCIMKEKKKPGETFFMCSCSSDECNDNIIFSEEYNTSNPDIPPHVQKSVNNDMIVTDNNGAVKFPQLCKFCDVRFSTCDNQKSCMSNCSITSICEKPQEVCVAVWRKNDENITLETVCHDPKLPYHDFILEDAASPKCIMKEKKKPGETFFMCSCSSDECNDNIIFSEEYNTSN[human IgG1 Fc and a few adjoining residues not spelt out]
On to B1, for which the Average IC50, A549 IL-11 release assay in assay [1] was 2.89 pM. In assay [2], the Average IC50, A549 IL-11 release assay was determined as 8.64 pM; the IC50 Ratio TGFβ3:TGFβ1 (average ratio), A549 IL-11 release assay worked out at 3.2; the IC50 ratio for TGFβ3:TGFβ1, representative experiment, A549/IL-11 release assay is 3.41.

B2: Protein 107 (Fc fusion)
chain: IPPHVQKSVNNDMIVTDNNGAVKFPQLCKFCDVRFSTCDNQKSCMSNCSITSICEKPQEVCVAVWRKNDENITLETVCHDPKLPYHDFILEDAASPKCIMKEKKKPGETFFMCSCSSDECNDNIIFSEEYNTSNPDDNNGAVKFPQLCKFCDVRFSTCDNQKSCMSNCSITSICEKPQEVCVAVWRKNDENITLETVCHDPKLPYHDFILEDAASPKCIMKEKKKPGETFFMCSCSSDECNDNIIFSEEYNTSN[human IgG1 Fc and a few adjoining residues not spelt out]
Consider B2, for which the Average IC50, A549/IL-11 release assay in assay [1] was 8.06 pM. Moreover, in assay [2], the Average IC50, A549/IL-11 release assay was 11.8 pM; the IC50 Ratio TGFβ3:TGFβ1 (average ratio), A549/IL-11 release assay is 1.46; the IC50 ratio for TGFβ3:TGFβ1, representative experiment, A549/IL-11 release assay amounted to 1.24.

B3: Protein 130 (Fc fusion)
chain: IPPHVQKSVNNDMIVTDNNGAVKFPQLCKFCDVRFSTCDNQKSCMSNCSITSICEKPQEVCVAVWRKNDENITLETVCHDPKLPYHDFILEDAASPKCIMKEKKKPGETFFMCSCSSDECNDNIIFSEEYNDMIVTDNNGAVKFPQLCKFCDVRFSTCDNQKSCMSNCSITSICEKPQEVCVAVWRKNDENITLETVCHDPKLPYHDFILEDAASPKCIMKEKKKPGETFFMCSCSSDECNDNIIFSEEYNTGGGGSGGGGSGGGGSGGGGSGG[human IgG1 Fc and a few adjoining residues not spelt out]
For B3, the Average IC50, A549/IL-11 release assay in assay [1] was 7.09 pM. Also, in assay [2], the Average IC50, A549/IL-11 release assay came to 8.91 pM and the IC50 Ratio TGFβ3:TGFβ1 (average ratio), A549/IL-11 release assay was determined as 1.24.

B4: Protein 96 (Fc fusion)
chain: IPPHVQKSVNNDMIVTDNNGAVKFPQLCKFCDVRFSTCDNQKSCMSNCSITSICEKPQEVCVAVWRKNDENITLETVCHDPKLPYHDFILEDAASPKCIMKEKKKPGETFFMCSCSSDECNDNIIFSEEYNTSNPDDNNGAVKFPQLCKFCDVRFSTCDNQKSCMSNCSITSICEKPQEVCVAVWRKNDENITLETVCHDPKLPYHDFILEDAASPKCIMKEKKKPGETFFMCSCSSDECNDNIIFSEEYNTSNPDNGAV[human IgG1 Fc and a few adjoining residues not spelt out]
For B4, the Average IC50, A549/IL-11 release assay in assay [1] was found to be 6.47 pM. Moreover, in assay [2], the Average IC50, A549/IL-11 release assay was found to be 11.2 pM; the IC50 Ratio TGFβ3:TGFβ1 (average ratio), A549/IL-11 release assay is 1.73; the IC50 ratio for TGFβ3:TGFβ1, representative experiment, A549/IL-11 release assay was determined as 1.72.

B5: Protein 112 (Fc fusion)
chain: IPPHVQKSVNNDMIVTDNNGAVKFPQLCKFCDVRFSTCDNQKSCMSNCSITSICEKPQEVCVAVWRKNDENITLETVCHDPKLPYHDFILEDAASPKCIMKEKKKPGETFFMCSCSSDECNDNIIFSEEYNDMIVTDNNGAVKFPQLCKFCDVRFSTCDNQKSCMSNCSITSICEKPQEVCVAVWRKNDENITLETVCHDPKLPYHDFILEDAASPKCIMKEKKKPGETFFMCSCSSDECNDNIIFSEEYMIVTDNNGAV[human IgG1 Fc and a few adjoining residues not spelt out]
In assay [1], B5 yielded an Average IC50, A549/IL-11 release assay of 15.7 pM. In assay [2], the Average IC50, A549/IL-11 release assay came out at 29.6 pM; the IC50 Ratio TGFβ3:TGFβ1 (average ratio), A549/IL-11 release assay amounted to 1.88; the IC50 ratio for TGFβ3:TGFβ1, representative experiment, A549/IL-11 release assay was determined as 1.95.

B6: Protein 116 (Fc fusion)
chain: IPPHVQKSVNNDMIVTDNNGAVKFPQLCKFCDVRFSTCDNQKSCMSNCSITSICEKPQEVCVAVWRKNDENITLETVCHDPKLPYHDFILEDAASPKCIMKEKKKPGETFFMCSCSSDECNDNIIFSEEYNTSNPDPHVQKSVNNDMIVTDNNGAVKFPQLCKFCDVRFSTCDNQKSCMSNCSITSICEKPQEVCVAVWRKNDENITLETVCHDPKLPYHDFILEDAASPKCIMKEKKKPGETFFMCSCSSDECNDNIIFSEEYNTSNPDIPPHVQKSVNNDMIVTDNNGAV[human IgG1 Fc and a few adjoining residues not spelt out]
On to B6, for which the Average IC50, A549/IL-11 release assay in assay [1] was determined as 2.44 pM. Moreover, in assay [2], the Average IC50, A549/IL-11 release assay is 6.17 pM and the IC50 Ratio TGFβ3:TGFβ1 (average ratio), A549/IL-11 release assay came to 2.53.

B7: Protein 106 (Fc fusion)
chain: IPPHVQKSVNNDMIVTDNNGAVKFPQLCKFCDVRFSTCDNQKSCMSNCSITSICEKPQEVCVAVWRKNDENITLETVCHDPKLPYHDFILEDAASPKCIMKEKKKPGETFFMCSCSSDECNDNIIFSEEYPHVQKSVNNDMIVTDNNGAVKFPQLCKFCDVRFSTCDNQKSCMSNCSITSICEKPQEVCVAVWRKNDENITLETVCHDPKLPYHDFILEDAASPKCIMKEKKKPGETFFMCSCSSDECNDNIIFSEEYPHVQKSVNNDMIVTDNNGAV[human IgG1 Fc and a few adjoining residues not spelt out]
Molecule B7 yielded an Average IC50, A549/IL-11 release assay in assay [1] of 3.27 pM. For the same molecule, in assay [2], the Average IC50, A549/IL-11 release assay was 8.27 pM and the IC50 Ratio TGFβ3:TGFβ1 (average ratio), A549/IL-11 release assay was determined as 2.54.

B8: Protein 101 (Fc fusion)
chain: IPPHVQKSVNNDMIVTDNNGAVKFPQLCKFCDVRFSTCDNQKSCMSNCSITSICEKPQEVCVAVWRKNDENITLETVCHDPKLPYHDFILEDAASPKCIMKEKKKPGETFFMCSCSSDECNDNIIFSEEYNDMIVTDNNGAVKFPQLCKFCDVRFSTCDNQKSCMSNCSITSICEKPQEVCVAVWRKNDENITLETVCHDPKLPYHDFILEDAASPKCIMKEKKKPGETFFMCSCSSDECNDNIIFSEEYNTIPPHVQKSVNNDMIVTDNNGAV[human IgG1 Fc and a few adjoining residues not spelt out]
As for B8, the Average IC50, A549/IL-11 release assay in assay [1] amounted to 6.75 pM. In addition, in assay [2], the Average IC50, A549/IL-11 release assay stood at 9.73 pM; the IC50 Ratio TGFβ3:TGFβ1 (average ratio), A549/IL-11 release assay is 1.44; the IC50 ratio for TGFβ3:TGFβ1, representative experiment, A549/IL-11 release assay was found to be 1.51.

B9: Protein 131 (Fc fusion)
chain: IPPHVQKSVNNDMIVTDNNGAVKFPQLCKFCDVRFSTCDNQKSCMSNCSITSICEKPQEVCVAVWRKNDENITLETVCHDPKLPYHDFILEDAASPKCIMKEKKKPGETFFMCSCSSDECNDNIIFSEEYNDMIVTDNNGAVKFPQLCKFCDVRFSTCDNQKSCMSNCSITSICEKPQEVCVAVWRKNDENITLETVCHDPKLPYHDFILEDAASPKCIMKEKKKPGETFFMCSCSSDECNDNIIFSEEYNTSNPDVQKSVNNDMIVTDNNGAV[human IgG1 Fc and a few adjoining residues not spelt out]
For the molecule B9, in assay [1], the Average IC50, A549/IL-11 release assay was determined as 5.71 pM. In assay [2], the Average IC50, A549/IL-11 release assay stood at 7.7 pM and the IC50 Ratio TGFβ3:TGFβ1 (average ratio), A549/IL-11 release assay is 1.31.

B10: Protein 132 (Fc fusion)
chain: IPPHVQKSVNNDMIVTDNNGAVKFPQLCKFCDVRFSTCDNQKSCMSNCSITSICEKPQEVCVAVWRKNDENITLETVCHDPKLPYHDFILEDAASPKCIMKEKKKPGETFFMCSCSSDECNDNIIFSEEYNTSNPDDNNGAVKFPQLCKFCDVRFSTCDNQKSCMSNCSITSICEKPQEVCVAVWRKNDENITLETVCHDPKLPYHDFILEDAASPKCIMKEKKKPGETFFMCSCSSDECNDNIIFSEEYNTSNPDVQKSVNNDMIVTDNNGAV[human IgG1 Fc and a few adjoining residues not spelt out]
Turning to B10, the Average IC50, A549/IL-11 release assay in assay [1] is 5.99 pM; in assay [2], 8 pM. In assay [2], the IC50 Ratio TGFβ3:TGFβ1 (average ratio), A549/IL-11 release assay stood at 1.34.

B11: Protein 133 (Fc fusion)
chain: IPPHVQKSVNNDMIVTDNNGAVKFPQLCKFCDVRFSTCDNQKSCMSNCSITSICEKPQEVCVAVWRKNDENITLETVCHDPKLPYHDFILEDAASPKCIMKEKKKPGETFFMCSCSSDECNDNIIFSEEYNTSNPDDNNGAVKFPQLCKFCDVRFSTCDNQKSCMSNCSITSICEKPQEVCVAVWRKNDENITLETVCHDPKLPYHDFILEDAASPKCIMKEKKKPGETFFMCSCSSDECNDNIIFSEEYNTIPPHVQKSVNNDMIVTDNNGAV[human IgG1 Fc and a few adjoining residues not spelt out]
Take B11: the Average IC50, A549/IL-11 release assay in assay [1] was 4.79 pM; in assay [2], 8.35 pM. In assay [2], the IC50 Ratio TGFβ3:TGFβ1 (average ratio), A549/IL-11 release assay amounted to 1.77.

B12: Protein 129 (Fc fusion)
chain: IPPHVQKSVNNDMIVTDNNGAVKFPQLCKFCDVRFSTCDNQKSCMSNCSITSICEKPQEVCVAVWRKNDENITLETVCHDPKLPYHDFILEDAASPKCIMKEKKKPGETFFMCSCSSDECNDNIIFSEEYNDMIVTDNNGAVKFPQLCKFCDVRFSTCDNQKSCMSNCSITSICEKPQEVCVAVWRKNDENITLETVCHDPKLPYHDFILEDAASPKCIMKEKKKPGETFFMCSCSSDECNDNIIFGGGGSGGGGSGGGGSGGGGSGGGGSGGG[human IgG1 Fc and a few adjoining residues not spelt out]
Molecule B12 registered an Average IC50, A549/IL-11 release assay in assay [1] of 15.2 pM. In assay [2], the Average IC50, A549/IL-11 release assay was 26.5 pM and the IC50 Ratio TGFβ3:TGFβ1 (average ratio), A549/IL-11 release assay stood at 1.73.

B13: Protein 113 (Fc fusion)
chain: IPPHVQKSVNNDMIVTDNNGAVKFPQLCKFCDVRFSTCDNQKSCMSNCSITSICEKPQEVCVAVWRKNDENITLETVCHDPKLPYHDFILEDAASPKCIMKEKKKPGETFFMCSCSSDECNDNIIFSEEYNTSNPDPHVQKSVNNDMIVTDNNGAVKFPQLCKFCDVRFSTCDNQKSCMSNCSITSICEKPQEVCVAVWRKNDENITLETVCHDPKLPYHDFILEDAASPKCIMKEKKKPGETFFMCSCSSDECNDNIIFSEEYNTSNPDPHVQKSVNNDMIVTDNNGAV[human IgG1 Fc and a few adjoining residues not spelt out]
For B13, in assay [1], the Average IC50, A549/IL-11 release assay worked out at 2.19 pM. Besides, in assay [2], the Average IC50, A549/IL-11 release assay amounted to 5.73 pM and the IC50 Ratio TGFβ3:TGFβ1 (average ratio), A549/IL-11 release assay was 2.49.
